# Data taken from the supplement of paper PMC6828730.
# The list shows a part of the results. Most values come without repeats; read them as rough.
# Tested on: hiPSC-derived cardiomyocytes
# Experiment: time to death of most cells in well after compound addition (days); higher = less cardiotoxic
# Settings: screen: 1; 10 µM
row,SMILES,time to death of most cells in well
1,O=C(O)[C@]1(Cc2cccc(Nc3nccs3)n2)CC[C@@H](Oc2cccc(Cl)c2F)CC1,> 7
2,COc1ccc(CNC(=O)Nc2ncc([N+](=O)[O-])s2)cc1,2
3,O=c1c(O)c(-c2ccc(O)c(O)c2)oc2cc(O)cc(O)c12 [Quercetin],> 7
4,Cn1cc(C2=C(c3ccc(Cl)cc3Cl)C(=O)NC2=O)c2ccccc21,3
5,COc1cc(N2CCC(N3CCN(C)CC3)CC2)ccc1Nc1ncnc(Nc2ccccc2S(=O)(=O)C(C)C)n1,> 7
6,COc1ccc(-c2cc3c(C)nc(N)nc3n([C@H]3CC[C@H](OCCO)CC3)c2=O)cn1,1.4
7,C=CC(=O)Nc1cccc(Oc2nc(Nc3ccc(N4CCN(C)CC4)cc3OC)ncc2Cl)c1,3.5
8,CN1CCN(c2ccc3nc(-c4c(N)c5c(F)cccc5[nH]c4=O)[nH]c3c2)CC1 [Dovitinib (TKI-258) Dilactic Acid],1.5
9,N#Cc1c(O)c2c(-c3ccc(-c4ccccc4O)cc3)csc2[nH]c1=O,> 7
10,Cn1cc(-c2ccc3nnc(C(F)(F)c4ccc5ncccc5c4)n3n2)cn1,> 7
11,O=C(O)CCC(=O)Nc1ccc(Br)cn1 [Bikinin],> 7
12,CN1CCC(Nc2nc(Nc3ccc(Oc4ccccc4)cc3)c3c(=O)[nH]cc(Br)c3n2)CC1,> 7
13,O=C(NOCC(O)CO)c1cc(Br)c(F)c(F)c1Nc1ccc(I)cc1F (stereo not given),> 7
14,Cc1nc(N)sc1-c1ccnc(Nc2ccc(N3CCOCC3)cc2)n1,3
15,CC(C)(C#N)c1ccc(N2C(=O)OCc3cnc4ccc(-c5cnc6ccccc6c5)cc4c32)cc1,> 7
